The whole screen tested about 310,000 compounds, of which about 2,200 (0.71%) showed an effect of 50% or more. The effect is printed as a negative number. This is one part of the list.

The target of the assay is human ether-à-go-go-related gene (hERG) potassium channel (human, UniProt Q12809). Briefly: primary screen, population patch clamp on CHO cells stably expressing hERG.
Chain of human ether-à-go-go-related gene (hERG) potassium channel (Q12809 whole entry, looked up): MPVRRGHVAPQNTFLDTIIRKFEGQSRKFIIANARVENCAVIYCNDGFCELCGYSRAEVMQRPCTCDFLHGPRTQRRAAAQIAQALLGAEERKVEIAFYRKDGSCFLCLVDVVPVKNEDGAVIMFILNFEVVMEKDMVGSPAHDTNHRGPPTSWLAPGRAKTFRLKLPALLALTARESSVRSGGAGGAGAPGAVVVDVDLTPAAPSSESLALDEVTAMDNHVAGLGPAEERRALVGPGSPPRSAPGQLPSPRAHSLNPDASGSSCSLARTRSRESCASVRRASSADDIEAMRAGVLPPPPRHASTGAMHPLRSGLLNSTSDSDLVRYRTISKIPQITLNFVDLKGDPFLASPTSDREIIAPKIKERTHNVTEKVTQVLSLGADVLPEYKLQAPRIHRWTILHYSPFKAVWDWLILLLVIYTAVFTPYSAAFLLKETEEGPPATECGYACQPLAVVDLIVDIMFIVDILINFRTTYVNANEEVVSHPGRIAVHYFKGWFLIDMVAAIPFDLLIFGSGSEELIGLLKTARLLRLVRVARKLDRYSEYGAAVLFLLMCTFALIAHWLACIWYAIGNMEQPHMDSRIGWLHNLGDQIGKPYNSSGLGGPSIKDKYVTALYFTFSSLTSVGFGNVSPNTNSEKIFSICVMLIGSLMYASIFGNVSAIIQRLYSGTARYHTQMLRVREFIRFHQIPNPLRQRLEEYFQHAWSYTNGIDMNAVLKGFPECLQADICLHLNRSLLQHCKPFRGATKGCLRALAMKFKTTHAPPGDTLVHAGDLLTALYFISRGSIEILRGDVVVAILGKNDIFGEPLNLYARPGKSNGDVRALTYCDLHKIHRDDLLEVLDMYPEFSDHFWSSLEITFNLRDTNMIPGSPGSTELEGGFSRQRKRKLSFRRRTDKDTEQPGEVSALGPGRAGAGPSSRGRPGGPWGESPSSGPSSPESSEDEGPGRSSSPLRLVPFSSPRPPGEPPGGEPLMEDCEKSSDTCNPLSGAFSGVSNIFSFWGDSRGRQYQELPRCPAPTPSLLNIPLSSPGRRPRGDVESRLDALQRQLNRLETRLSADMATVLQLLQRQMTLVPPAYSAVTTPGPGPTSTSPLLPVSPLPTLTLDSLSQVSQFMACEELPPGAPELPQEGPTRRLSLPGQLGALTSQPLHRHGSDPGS
For the molecule `COc1ccc(OC)c(C2=NOC(C(=O)Nc3cc(C)on3)C2)c1` (centres unmarked), the “hERG current change (%, negative = inhibition) at 1uM” value turned out to be 1.55%.
With `COc1cccc(CNn2cn[nH]c2=S)c1OCc1ccccc1`, the “hERG current change (%, negative = inhibition) at 1uM” value is 1.76%.
Consider `COc1ccccc1CC(=O)N1CCN(c2ccc(F)cc2)CC1`, for which the “hERG current change (%, negative = inhibition) at 1uM” value is recorded as 13.5%.
`Nn1c(SCC(=O)NC2CCS(=O)(=O)C2)nnc1-c1cccs1` (centres unmarked): the “hERG current change (%, negative = inhibition) at 1uM” value came out at 16.4%.
Consider `Cc1ccc2c(c1)Oc1ccccc1C=C2C(=O)O`, for which the “hERG current change (%, negative = inhibition) at 1uM” value is 8.54%.
Take `Cc1cccc(NC2=NC(C)(C)N=C(N)N2)c1C`: the “hERG current change (%, negative = inhibition) at 1uM” value amounted to 12.8%.
Turning to `Cc1cc(C)nc(N2C(=O)CC(Cc3ccc(Cl)cc3)C2=O)n1` (centres unmarked), the “hERG current change (%, negative = inhibition) at 1uM” value is recorded as 8.77%.
Turning to `CN1CCN(S(=O)(=O)c2ccc(Sc3nc4ccccc4[nH]3)c3nsnc23)CC1`, the “hERG current change (%, negative = inhibition) at 1uM” value was 2.69%.
As for `COc1cccc(-c2c(NC(=O)c3ccco3)oc3ccccc3c2=O)c1`, the figure is 9.86%; as for `Nc1nc(Cl)cc(Sc2ccc3ccccc3c2)n1`, 8.82%.
In the case of `NC(=S)N/N=C/c1coc2ccc(Br)cc2c1=O`, the “hERG current change (%, negative = inhibition) at 1uM” value is on record as 10.6%.
Regarding `O=C(COc1ccc2c(c1)CCC2)NCc1cccc(Cl)c1`, the “hERG current change (%, negative = inhibition) at 1uM” value amounted to 6.98%.
With `COC(=O)CSc1nc(NC#N)nc(NC(C)(C)C)n1`, the “hERG current change (%, negative = inhibition) at 1uM” value is 14.3%.
As to `Cc1ccc(-c2csc(N3CCC(C(N)=O)CC3)n2)cc1`, the “hERG current change (%, negative = inhibition) at 1uM” value was found to be 17.9%.
Next, `NS(=O)(=O)c1ccc(N2CCOCC2)c(C(=O)NCCCSc2ccccc2)c1`: 1.07%; `C=CCNC(=S)NC(=O)c1ccc(C)c(Br)c1`: 12.2%; `CCOc1ccc(NC(=O)CCC(=O)N2CCSc3ccccc32)cc1`: -3.41%.
With `COc1ccccc1OCCCC(=O)Nc1nccs1`, the “hERG current change (%, negative = inhibition) at 1uM” value is listed as 10.7%.
Next, `O=C1CCCC2=C1C(c1ccncc1)c1c(nc(SCc3ccccc3Cl)[nH]c1=O)N2` (centres unmarked): 10.5%.
Next, `CC1CCN(C(=O)COc2coc(CN3CCc4ccccc43)cc2=O)CC1`: -10.8%.
With `COc1ccc(CCNC(=O)c2ccccc2Cl)cc1OC`, the “hERG current change (%, negative = inhibition) at 1uM” value is on record as 7.87%.
As for `COc1ccc(S(=O)(=O)N2CCCC2CNC(=O)c2cccc(OC)c2)cc1` (centres unmarked), the “hERG current change (%, negative = inhibition) at 1uM” value came out at 5.46%.
As for `Cc1cccc(Cn2nc(C)cc2NC(=O)CCCn2ccc([N+](=O)[O-])n2)c1`, the “hERG current change (%, negative = inhibition) at 1uM” value is -2.16%.
Consider `Cc1ccc2nc(/N=C(\N)NC(=O)N3c4ccccc4Sc4ccccc43)nc(C)c2c1`, for which the “hERG current change (%, negative = inhibition) at 1uM” value came to 10.6%.
In the case of `Cc1ccc(C2/C(=C(/O)c3ccc(Br)cc3)C(=O)C(=O)N2Cc2ccco2)o1` (centres unmarked), the “hERG current change (%, negative = inhibition) at 1uM” value is listed as 16.2%.
Regarding `CCCCCCCC(=O)NNC(=O)c1c(O)c2ccccc2[nH]c1=O`, the “hERG current change (%, negative = inhibition) at 1uM” value is 9.8%.
With `COc1ccc(C(CC(=O)N2CCC3(CC2)OCCO3)NS(=O)(=O)c2ccc(OC)cc2)cc1` (centres unmarked), the “hERG current change (%, negative = inhibition) at 1uM” value is listed as 9.32%.
For `Clc1ccc(CN2CCN(c3ccccc3)CC2)cn1`, the “hERG current change (%, negative = inhibition) at 1uM” value was found to be 9.39%.
On to `Cc1cccc(-n2c(=S)[nH]c3ccccc3c2=O)n1`, for which the “hERG current change (%, negative = inhibition) at 1uM” value amounted to 8.41%.
As to `CN(C)S(=O)(=O)c1ccc(NC=O)cc1`, the “hERG current change (%, negative = inhibition) at 1uM” value is listed as 10.6%.
Turning to `C=CCN1c2ccccc2[C@]23C[C@@H](C(=O)OC)N(C(=O)c4cccs4)C2=NC(C(=O)OC)=C(C(=O)OC)[C@H]13`, the “hERG current change (%, negative = inhibition) at 1uM” value is listed as 6.71%.
Next, `Cc1c(C)n(CC(O)CN(CCO)CCO)c2ccccc12.Cl` (centres unmarked): 18.3%; `Cc1oc(-c2ccc3ccccc3c2)nc1CN(C)C(C)c1ccncn1` (centres unmarked): -11%.
Turning to `O=C(N=Nc1c(O)[nH]c2ccc(F)cc12)c1ccc(NS(=O)(=O)c2cccs2)cc1`, the “hERG current change (%, negative = inhibition) at 1uM” value was found to be 12.4%.
With `Cc1ccc(-c2nc(CS(=O)CC(=O)NCCN3CCOCC3)c(C)o2)cc1` (centres unmarked), the “hERG current change (%, negative = inhibition) at 1uM” value came out at 12%.
On to `CC(C)C[C@H](NC(=O)N1CCn2c1nc1ccccc12)C(=O)NCCc1ccccc1`, for which the “hERG current change (%, negative = inhibition) at 1uM” value is given as 13.6%.
Next, `COc1cc2c(c(OC)c1OC)-c1ccc(NC(=O)c3ccccc3)c(=O)cc1[C@@H](NC(C)=O)CC2`: 3.22%; `Cc1ccc(S(=O)(=O)N2CCN(C(=O)c3c(-c4ccccc4)noc3C)CC2)cc1`: 6.23%; `CCN1C(=O)CC(c2ccccc2)CC1=O`: 9.44%.
Next, `Cc1cccc(C)c1CC(=O)N1CCOCC1`: 12.3%.
Turning to `O=c1cc(O)nc[nH]1`, the “hERG current change (%, negative = inhibition) at 1uM” value was found to be 7.69%.
Take `CCN(CC)CCN(C(=O)/C=C/c1cccs1)c1nc2ccc(Cl)cc2s1.Cl`: the “hERG current change (%, negative = inhibition) at 1uM” value turned out to be 11.4%.
Consider `CN(C)C(=S)Nc1ccc2c(c1)OCO2`, for which the “hERG current change (%, negative = inhibition) at 1uM” value is given as 12.9%.
As for `Cc1ccc(-c2cc3c(nn2)-c2ccccc2C3=O)cc1`, the “hERG current change (%, negative = inhibition) at 1uM” value is 7.14%.
